Test results from patent publication US20230149393A1, “INHIBITORS OF TRPC6 FOR TREATING RESPIRATORY CONDITIONS” (Boehringer Ingelheim International GmbH, priority 2020, published 2023).

Tested on: LPS-induced vascular leakage
Test: Reduction of LPS-induced vascular leakage in a mouse model (BALF protein)
Settings: 12 h and 2 h before LPS challenge, BALF 4 h after LPS aerosol, FIG. 1c

COc1cc(C(=O)N2CCC(c3ccc(N)nn3)CC2)ncc1Oc1ccc(F)cc1 [Compound 17, [4-(6-Amino-pyridazin-3-yl)-piperidin-1-yl]-[5-(4-fluoro-phenoxy)-4-methoxy-pyridin-2-yl]-methanone]
reduction of BALF protein concentration (3 mg/kg p.o.): 56% | reduction of BALF protein concentration (10 mg/kg p.o.): 62%
